Measurements: the supplement of paper PMC4466236
Whole data set: some 33,000 sequences, median “E-score (dimensionless, -0.5 to 0.5)” near -0.058, cut for the highest 2% near 0.35. The list shows a part of the results.

system: MvaT; assay: PBM 8-mer E-score (mean of HK and ME arrays) (E-score (dimensionless, -0.5 to 0.5)); higher = stronger relative binding preference; most listed sequences are background and not binding sites
Method in brief: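 Full-length P. aeruginosa MvaT carrying an N-terminal glutathione S-transferase tag was tested by protein binding microarray following a previously described protocol. Two universal double-stranded 60-mer arrays, ME and HK, were used, each with a constant 25-mer primer region and a variable 35-mer region covering all 8-mers. The rank-based E-score is the mean of the two arrays, parsed with a custom script. Its range runs from -0.5 to 0.5 for each 8-mer.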

| Sequence | PBM 8-mer E-score |
| --- | --- |
| CAGTCTTA | 0.124 |
| GGCCCGCC | -0.354 |
| ATCTCTGC | -0.251 |
| AACGACCG | -0.105 |
| AGATAGCG | -0.011 |
| AGTAAATA | 0.361 |
| ATATTTTC | 0.32 |
| AAGGCCTC | -0.268 |
| ACGCTGTC | -0.261 |
| CTGCACAC | 0.0376 |
| ACTCAAGA | -0.0191 |
| CTGGGCCC | -0.333 |
| CTACGAGC | -0.276 |
| CCTAGTCG | -0.142 |
| GTTTGCAA | 0.159 |
| AGGTTGTC | -0.177 |
| CGACGCTC | -0.304 |
| AATGCCCC | -0.175 |
| ACACTAGT | 0.258 |
| CGATTCGA | -0.0688 |
| CCGCGCAA | -0.176 |
| AACAATGT | 0.264 |
| ATGGCTTG | -0.187 |
| ATTTACTG | 0.247 |
| AACCTGTG | -0.0614 |

| Sequence | PBM 8-mer E-score |
| --- | --- |
| AATTGGGA | 0.0825 |
| TAACGCTA | 0.057 |
| CCCGTACA | -0.0141 |
| ACGCTTCT | -0.111 |
| GTACCAGA | -0.083 |
| CAAATATC | 0.233 |
| GATAGCTA | -0.0522 |
| CGACTGAC | -0.281 |
| CACGCCCC | -0.29 |
| ATACGCAG | -0.0253 |
| ATCACTCC | -0.158 |
| ATCTCGTG | -0.142 |
| ATTCCCCC | -0.00368 |
| TGGTTTAA | 0.313 |
| CAATCTTC | 0.0249 |
| GAGCTGGA | -0.0964 |
| GCCAACAC | -0.0601 |
| GTGCAGTA | 0.172 |
| AGGCCGAT | -0.208 |
| AACTTCCA | 0.0901 |
| AATCCATT | 0.085 |
| AGCGCTGG | -0.217 |
| CAACTAGG | 0.0857 |
| ATACATCC | 0.197 |
| CAATTTCC | 0.143 |

| Sequence | PBM 8-mer E-score |
| --- | --- |
| GATGCAGC | -0.106 |
| CACCAAAG | 0.0651 |
| CTACCTGA | -0.164 |
| CCGTCTTC | -0.15 |
| AATTGCCT | -0.000757 |
| AGACCCAT | -0.0497 |
| ACGGAGAA | 0.0223 |
| AAGCTAAC | -0.15 |
| ATATTGAG | 0.287 |
| CTCCCTGA | -0.246 |
| TATGTCCA | 0.158 |
| GCAGCAAC | -0.121 |
| CGGGAGCA | -0.176 |
| CACTTTGC | 0.00316 |
| GGTGCAGA | -0.154 |
| ATGAACCC | -0.14 |
| AGCCAATA | 0.102 |
| CACTCTGG | -0.149 |
| CGAGGTGA | -0.181 |
| CCATGGGG | -0.298 |
| CACTCCCC | -0.237 |
| GGAATCTA | -0.0396 |
| AAATAGTC | 0.235 |
| GAGAAGGC | -0.252 |
| CGTGAGTA | -0.0677 |

| Sequence | PBM 8-mer E-score |
| --- | --- |
| AAGCTCGC | -0.229 |
| AACTTGGG | 0.0738 |
| GACCGCCA | -0.19 |
| CGTACTTA | 0.0935 |
| CACCACCC | -0.103 |
| ATGATCTC | -0.0606 |
| CAACCGCA | -0.116 |
| ATCTACGC | 0.0348 |
| CAAGAATA | 0.225 |
| CCCTACCG | -0.223 |
| CATACTGC | -0.00659 |
| CAGGCGGG | -0.229 |
| TGGTAGAA | 0.0172 |
| TAAAAGAA | 0.207 |
| GTTCAAAC | 0.13 |
| ATGAAGAG | 0.0317 |
| ACAGTCAT | 0.0315 |
| AACAGTCA | 0.0195 |
| ACCGCTCC | -0.0921 |
| CGGTAACC | -0.195 |
| AGTGGCAC | -0.0586 |
| ATGACTCA | -0.062 |
| CTTCGAAA | 0.0509 |
| AAGTGAGG | -0.207 |
| ACTGTCAT | 0.0191 |

| Sequence | PBM 8-mer E-score |
| --- | --- |
| AGATTTAC | 0.126 |
| GAACCTGC | -0.176 |
| AAGCCGTC | -0.256 |
| ATGGTACC | -0.0344 |
| AAACAGGC | 0.022 |
| GGAGAGAA | -0.0601 |
| AAGAACAA | 0.267 |
| CACAACGG | -0.176 |
| CATGGCCG | -0.248 |
| CTTCGATC | -0.136 |
| TGCACACA | 0.0734 |
| ATGGAAGG | -0.278 |
| GATCCGTA | -0.0565 |
| CCTTGAGC | -0.173 |
| CCGTCGCG | -0.224 |
| AAATTTGT | 0.264 |
| AGGAAGAT | 0.0835 |
| GAGAAGAC | -0.209 |
| ATTCCGTG | 0.0396 |
| ACTATCTA | 0.128 |
| CAGAAGAG | -0.126 |
| CCGAGAGG | -0.256 |
| GTTCGGGA | -0.0724 |
| CAGCCTCG | -0.247 |
| GAGCAAGA | -0.15 |

| Sequence | PBM 8-mer E-score |
| --- | --- |
| GGTGTTTA | 0.0667 |
| GTGAGATA | 0.00796 |
| CCTGCCCG | -0.301 |
| AGAATGTG | 0.136 |
| CGTACAAA | 0.0963 |
| AGACTAAA | 0.125 |
| CACGCCAG | -0.233 |
| ATCCGAGC | -0.0779 |
| CCACGAAG | 0.052 |
| CTTTACCA | 0.0699 |
| CCGTGCCG | -0.146 |
| ACCCGCAA | 0.145 |
| ACTTGTTA | 0.245 |
| CGAACCTA | -0.0542 |
| CCTGGATC | -0.207 |
| CTGCGCAG | -0.139 |
| ATCTTCTC | 0.0223 |
| CTCACGCA | -0.122 |
| CCATGCCC | -0.187 |
| CTGGGCCA | -0.137 |
| ATTATAAC | 0.415 |
| CAGCACAG | -0.152 |
| AGATCCGC | -0.173 |
| ATGCCAAC | -0.0824 |
| CAACGATA | 0.0955 |

| Sequence | PBM 8-mer E-score |
| --- | --- |
| AAATCTAG | -0.0431 |
| GCGACTGA | -0.144 |
| GTGTTAGA | 0.0101 |
| AGGAGTCG | -0.257 |
| CACAGCGG | -0.0334 |
| AATAGGGA | 0.0699 |
| GAACAATA | 0.267 |
| GCTGGCAA | 0.02 |
| ATTAGTGC | 0.214 |
| TCAGGCGA | -0.0608 |
| GAGCAGGC | -0.379 |
| AGCCCCGA | -0.309 |
| ATCATAAG | 0.161 |
| TAGGCCAA | -0.0157 |
| GTGGGTAA | 0.0827 |
| ACTGAAGT | 0.0656 |
| GACAGGCA | -0.187 |
| ATTCGATC | 0.0444 |
| GGTATAGA | 0.08 |
| AAAGTATT | 0.27 |
| CGGTGTAA | -0.0735 |
| CACGCGCC | -0.16 |
| AAACCTTG | -0.0721 |
| TCCATCAA | -0.032 |
| GGAGGTGA | -0.191 |

| Sequence | PBM 8-mer E-score |
| --- | --- |
| CGTAGGAG | -0.193 |
| ACTGGTCC | -0.187 |
| CACGTCAG | -0.292 |
| ATAACTAA | 0.32 |
| ATGTTTAC | 0.175 |
| AAGTATCT | 0.238 |
| GCGCAGAA | -0.0614 |
| GATGCTTA | 0.0939 |
| AGTCAACC | -0.0374 |
| GGCTGCAC | -0.168 |
| GGCATTAA | 0.193 |
| ACATTCGA | 0.036 |
| ATAATAAT | 0.463 |
| AGCAGGAT | -0.103 |
| ACCCCCGC | -0.222 |
| CGCTCAAC | -0.0575 |
| GGGATATA | 0.218 |
| AGCCGGGC | -0.237 |
| GAACAGAC | 0.0503 |
| GTTGGGAA | -0.0473 |
| AATGGTGA | 0.0929 |
| GCCATAGA | -0.0619 |
| AGAAATAA | 0.37 |
| CGGCGAAA | -0.0328 |
| AATCTTAA | 0.182 |

| Sequence | PBM 8-mer E-score |
| --- | --- |
| CGGGCTGA | -0.16 |
| AGACTTAA | 0.133 |
| ATCCGGAG | -0.11 |
| CGCCTGTA | -0.0294 |
| AATAAATG | 0.33 |
| AAACAATG | 0.201 |
| ACATGCAT | 0.163 |
| CCCACCGG | -0.227 |
| GTGGATGA | -0.19 |
| GTGGGCTA | -0.0982 |
| AGAAGTCG | -0.127 |
| CATGTCTA | -0.0723 |
| ATGCAAAC | 0.104 |
| ATTGACGA | -0.0515 |
| GTCAGAGA | -0.236 |
| TTATGGAA | 0.173 |
| CAGCCTGA | -0.00325 |
| CCCATAAA | 0.0641 |
| ACTTTTAC | 0.211 |
